# According to publication PMC4336329 (PLoS ONE, 2015):
# Screen size: about 310,000 compounds; about 14,000 (4.5%) showed an effect of 50% or more. The effect is printed as a negative number. Some of the results follow.
# Target: human ether-à-go-go-related gene (hERG) potassium channel (human, UniProt Q12809)
# Assay: primary screen, population patch clamp on CHO cells stably expressing hERG
# 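Note: peak tail current of the secondary pulse compared with the same well before compound.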
# Chain of human ether-à-go-go-related gene (hERG) potassium channel (Q12809 whole entry, looked up): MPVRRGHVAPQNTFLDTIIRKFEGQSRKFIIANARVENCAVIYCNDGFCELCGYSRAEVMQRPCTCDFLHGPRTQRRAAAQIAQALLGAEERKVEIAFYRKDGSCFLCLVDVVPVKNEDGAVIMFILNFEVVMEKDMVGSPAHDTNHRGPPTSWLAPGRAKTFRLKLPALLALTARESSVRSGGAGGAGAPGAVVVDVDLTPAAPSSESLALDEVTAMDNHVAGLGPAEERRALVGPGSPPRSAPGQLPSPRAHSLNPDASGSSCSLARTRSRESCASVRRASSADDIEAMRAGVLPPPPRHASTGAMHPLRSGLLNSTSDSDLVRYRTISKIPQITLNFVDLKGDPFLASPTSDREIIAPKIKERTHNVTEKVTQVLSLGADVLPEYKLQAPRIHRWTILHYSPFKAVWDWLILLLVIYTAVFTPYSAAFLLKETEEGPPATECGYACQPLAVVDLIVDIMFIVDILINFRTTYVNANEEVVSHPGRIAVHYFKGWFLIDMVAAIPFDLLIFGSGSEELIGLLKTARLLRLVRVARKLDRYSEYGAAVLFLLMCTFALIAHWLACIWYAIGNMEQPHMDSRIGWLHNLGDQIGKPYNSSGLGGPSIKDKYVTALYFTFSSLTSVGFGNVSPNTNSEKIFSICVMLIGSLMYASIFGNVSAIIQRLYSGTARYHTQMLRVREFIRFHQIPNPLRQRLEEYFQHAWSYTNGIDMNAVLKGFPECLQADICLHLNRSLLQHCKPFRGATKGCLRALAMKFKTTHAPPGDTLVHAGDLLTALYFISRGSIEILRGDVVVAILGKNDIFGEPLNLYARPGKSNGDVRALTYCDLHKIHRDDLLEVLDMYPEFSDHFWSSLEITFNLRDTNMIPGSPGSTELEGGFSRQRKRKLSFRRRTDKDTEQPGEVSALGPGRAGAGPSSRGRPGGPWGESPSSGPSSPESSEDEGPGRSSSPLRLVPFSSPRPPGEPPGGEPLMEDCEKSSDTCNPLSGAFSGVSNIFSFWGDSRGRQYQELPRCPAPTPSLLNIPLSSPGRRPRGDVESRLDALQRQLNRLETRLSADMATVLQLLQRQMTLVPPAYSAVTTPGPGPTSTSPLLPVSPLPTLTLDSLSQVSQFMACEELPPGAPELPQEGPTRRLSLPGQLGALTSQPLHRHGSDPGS
row,SMILES,"hERG current change (%, negative = inhibition) at 10uM"
1,CNC1(c2nnnn2-c2ccccc2C)CCOC(C)(C)C1 (centres unmarked),19.5%
2,COc1ccc(CNC(=O)C2CCN(S(=O)(=O)c3ccc4c(c3)N(C(C)=O)CCO4)CC2)cc1,-40.5%
3,O=C(CSc1nnc(C2CC2)n1-c1ccccc1)NCc1ccco1,5.39%
4,CC1(C)Cc2cccc(OCC(=O)Nc3cc(S(C)(=O)=O)ccc3Cl)c2O1,12.4%
5,COc1ccc(CC2(C)OC(c3ccncc3)=NN2C(C)=O)cc1 (centres unmarked),0.737%
6,Cn1c(=O)c2c(ncn2CC(=O)OCC(=O)Nc2cc(Cl)ccc2Cl)n(C)c1=O,-21.7%
7,Cn1c(=O)oc2cc(S(=O)(=O)CCC(=O)N3CCN(c4ccccc4)CC3)ccc21,10.9%
8,CC(=O)Nc1ccc(-c2csc(Nc3cc(C)ccn3)n2)cc1,2.57%
9,Cc1onc(-c2ccccc2)c1C(=O)N/N=C/c1cn(C)c2ccccc12,4.18%
10,O=c1[nH]nc(SCCS(=O)(=O)c2ccc(F)cc2)n1-c1ccc2c(c1)OCCO2,5.22%
11,COc1cc(C(=O)N2CCN(C(=O)COc3ccc4ccccc4c3)CC2)cc(OC)c1OC,-73%
12,Cc1cc(S(N)(=O)=O)c(N)c(S(N)(=O)=O)c1,2.55%
13,Cc1cccc(C(=O)NC2CCN(C(=O)N3CCOCC3)CC2)c1,22.3%
14,COCON1C(=O)CN(C(C)=O)C1c1ccc(Cl)cc1Cl (centres unmarked),11.4%
15,Cc1c(C)[n+](=O)c(-c2cccs2)c(C)n1[O-],20.5%
16,CCCC1=Nc2cc(C(=O)NCCCN3CCN(C)CC3)ccc2Sc2ccccc21,-16.6%
17,CC1CCC2(CC1)NC(=O)N(Cc1cc(=O)n3ccsc3n1)C2=O (centres unmarked),-8.8%
18,CCCN(CCC)CCCNc1ccc(C(=O)Nc2cccc(OC)c2)cc1[N+](=O)[O-].Cl,-76.3%
19,O=C(NCCc1nnc2ccc(SCC(=O)N3CCCC3)nn12)c1ccccc1,6.64%
20,Cc1cc(C)cc(-c2nnc(SCc3ccc(C(=O)O)cc3)o2)c1,-74%
21,CCc1ccc(C(=O)NNC(=O)C2CC(=O)N(Cc3ccccc3)C2)cc1 (centres unmarked),-16.8%
22,Cc1ccc(NC(=O)NC(=O)CN2C(=O)NC3(CCCCCCC3)C2=O)c(C)c1,21%

row,SMILES,"hERG current change (%, negative = inhibition) at 10uM"
1,Cl.O.O=C1Cc2ccccc2Sc2c(OCCN3CCCCC3)cccc21,-63.4%
2,CC(=O)NCCNC(=O)c1ccc2c(c1)S(=O)(=O)c1ccccc1C2=O,5.42%
3,CC(C)C1Nc2ccc(S(N)(=O)=O)cc2C2C=CCC21 (centres unmarked),5.89%
4,O=C1Nc2c(Br)cc(Br)c3cccc1c23,18.8%
5,O=C(Nc1ccc2ccccc2c1)c1ccc(NS(=O)(=O)c2ccc(Br)s2)cc1,12%
6,O=C(c1n[nH]c(=O)c2ccccc12)N1CCN(c2ccc(F)cc2)CC1,-17.4%
7,CN1CCc2nc3sc(C(=O)NCc4ccccc4)c(N)c3cc2C1,-47.1%
8,COc1ccc2c(c1)C1C=CCC1C(c1cc3c(cc1Br)OCO3)N2 (centres unmarked),1.4%
9,CCOc1ccc(N2C(=O)CC(N3CCN(c4ccccc4OC)CC3)C2=O)cc1 (centres unmarked),-0.741%
10,S=C(NCCCN1CCOCC1)N1CCN(c2cccc(Cl)c2)CC1,-40.2%
11,O=C(Cc1ccc(F)cc1)N(c1ccc(F)cc1)C1C=CS(=O)(=O)C1 (centres unmarked),2.59%
12,CN1CCN(CC(=O)n2c3c(c4ccccc42)CCCC3)CC1.Cl,-19.2%
13,Cc1cc(=O)oc2cc(OCC(O)CN3CCN(c4ccc(F)cc4)CC3)ccc12 (centres unmarked),-37.7%
14,COc1ccccc1NC(=O)CCCCCN1C(=O)c2cccc3cccc(c23)C1=O,8.9%
15,CCCCCn1c(CN2CC(C)OC(C)C2)nc2c1c(=O)n(C)c(=O)n2C (centres unmarked),-5.47%
16,COc1cc(NC(=O)Nc2cccc(Cl)c2)c(C(=O)O)cc1OC,18%
17,COCCn1c(-c2cc(OC)c(OC)c(OC)c2)nc2oc3cc(OC)ccc3c(=O)c2c1=O,3.38%
18,COc1ccc(COC(=O)c2cc([N+](=O)[O-])ccc2N2CCOCC2)cc1F,-62.5%
19,N#C/C(=C\c1ccccc1Cl)C(=O)NC(=O)Oc1ccccc1,19%
20,CC(C)CC(NS(=O)(=O)c1ccc2c(c1)oc(=O)n2C)C(=O)NCc1cccnc1 (centres unmarked),13.8%
21,O=C(O)Cc1ccc(C(=O)c2ccc(F)cc2)s1,10.3%
22,COc1ccc2c(c1OC)C(=O)N(c1ccc(C)cc1)C2=O,1.65%

row,SMILES,"hERG current change (%, negative = inhibition) at 10uM"
1,CCc1c(C)nc2ncnn2c1N1CCC(C(=O)NCc2cccs2)CC1,-44.4%
2,COc1cc(C(C)=O)ccc1O,7.26%
3,COC(=O)C(NS(C)(=O)=O)(c1c(C)[nH]c2ccccc12)C(F)(F)F (centres unmarked),-1.63%
4,COc1ccc(CCNCc2ccccc2N2CCCC2)cc1.O=C(O)C(=O)O,-41.8%
5,CC(C)(C)c1ccc(C(=O)NCc2nnc(SCC(=O)NC3CCCC3)o2)cc1,1.85%
6,O=C(NCc1nnc(SCC(=O)N2CCN(c3ccccc3)CC2)o1)c1ccco1,2.64%
7,CC(OC(=O)c1cccs1)C(=O)NCCc1ccccc1 (centres unmarked),15.8%
8,COc1ccc(C2Nc3ccccc3C(=O)N2Cc2ccccc2)cc1CSc1ccccn1 (centres unmarked),3.07%
9,CCCN1C(=S)SC(C)(C)C1/[N+]([O-])=C/c1ccc(S(=O)(=O)NC)cc1 (centres unmarked),8.01%
10,CCCCCCCC(=O)NNC(=O)c1ccc([N+](=O)[O-])cc1,-20.6%
11,Cc1sc2nc3ccc(N4CCCC4)nn3c(=O)c2c1C,-17.2%
12,Cn1c(=O)c2c(nc(CN3CCN(C(=O)c4ccco4)CC3)n2CCCc2ccccc2)n(C)c1=O,-68.5%
13,CCc1nc2ccccc2n(CCOCCOCCn2c(=O)c(CC)nc3ccccc32)c1=O,-7.15%
14,COCCN1C(=O)N(c2cccc(C)c2)C(=O)C1CC(=O)Nc1ccc(F)cc1 (centres unmarked),-8.92%
15,O=[N+]([O-])c1ccc(O)c(/C=N/Nc2ccccc2Cl)c1,29.8%
16,CC(NC(=O)c1cccc(S(=O)(=O)N2CCN(C)CC2)c1)C1CC2CCC1C2 (centres unmarked),-20.8%
17,O=C(O)c1ccc(-c2ccccc2)[nH]1,8.17%
18,CCNc1nc(NCC)nc(SCCOC(=O)Nc2ccc(Cl)cc2Cl)n1,-0.694%
19,CC(CCc1ccccc1)NC(=O)C1CCN(C(=O)c2sccc2-n2cccc2)CC1 (centres unmarked),-22%
20,CCCCC1=CC2=C(c3ccco3)C(=O)C(C)(OC(=O)c3ccc(OC)cc3)C(=O)C2=CN1CCCCO (centres unmarked),5.35%
21,CN1C(=O)NC(c2ccc(O)cc2)C2=C1CN(c1ccc(O)cc1)C2=O (centres unmarked),24%
22,CCOC(=O)c1ccc(NC(=O)C(=O)NCC2CCCO2)cc1 (centres unmarked),7.84%

row,SMILES,"hERG current change (%, negative = inhibition) at 10uM"
1,COc1ccc(CNc2nc3nc4c(c(=O)n3[nH]2)CCC4)cc1,1.21%
2,O=C(CN1CCN(S(=O)(=O)c2ccc(F)cc2)CC1)Nc1ccc2c(c1)OCO2,-40.6%
3,O=C1CC(C(=O)N2CCN(c3ccccc3Cl)CC2)CN1Cc1ccccc1 (centres unmarked),-37.3%
4,O=C(CSc1nnc(-c2ccncc2)n1-c1ccc(Cl)cc1)N1CCOCC1,-0.456%
5,CC(C)CC(=O)N1CCN(c2ccc([N+](=O)[O-])cc2Cl)CC1,-59.9%
6,Cc1ccc(S(=O)(=O)CCN2CCN(c3ccccc3)CC2)cc1,9.88%
7,O=C(NCc1n[nH]c(=S)n1-c1ccccc1)c1ccc(S(=O)(=O)N2CCCCC2)cc1,8.66%
8,CSc1ccccc1NC(=O)Cn1nc([N+](=O)[O-])c(Cl)c1C,9.2%
9,CC(C)n1c(O)c(N=NC(=O)CNC(=O)CCc2ccccc2)c2ccccc21,-43.1%
10,Cc1ccccc1-c1noc(-c2ccccc2F)n1,5.99%
11,CCCc1nnc(NC(=O)c2cc3ccccc3o2)s1,13.1%
12,COc1cc2[nH]c(=S)nc(NCCCOC(C)C)c2cc1OC,-16.6%
13,CCC(C)c1cc(S(=O)(=O)N2CCOCC2)ccc1OC (centres unmarked),-12.8%
14,Cc1nc2ccccc2n1C(=O)c1cc(-c2ccc(Br)cc2)nc2ccccc12,15%
15,COc1ccc(CN2CCC(N(CCc3ccccc3)Cc3ccccc3)CC2)c(OC)c1.O=C(O)C(=O)O,-74.5%
16,O=C(Nc1ccc2c(c1)OCO2)N1CCN(c2cccc(C(F)(F)F)c2)CC1,-1.15%
17,COC(=O)NNC(=O)Cc1cccc2ccccc12,2.94%
18,COc1ccc(/C=N/NC(=O)c2cccc(Br)c2)cc1CSc1ccccn1,2.67%
19,COc1cc(C(=O)NCc2nnc(SCC(=O)N3CCC(C)CC3)o2)cc(OC)c1OC,3.18%
20,O=C(COC(=O)c1cccc(S(=O)(=O)N2CCOCC2)c1)Nc1ncc(Cl)cc1Cl,-13.4%
